Experimental findings from patent publication US12703706B2, “Anthelmintic compounds comprising a thienopyridine structure” (Intervet Inc., priority 2020, dated 2026) are described below.

Assay [1] has as its system Ascaridia galli (intestinal roundworm of chicken), larval stage 3. Nature of the assay: In vitro assay Ascaridia galli L3, minimum effective concentration. As to conditions: read-out: MEC against Ascaridia galli L3, minimum effective concentration, microscopic examination, 20 larvae per well. The source says: In Vitro Assay: Ascaridia galli and Oesophagostumum dentatum
Ascaridia galli (intestinal roundworm of chicken), larval stage 3 (“L3”); and Oesophagostumum dentatum (nodular worm of swine), larval stages 3 and 4 (respectively “L3” and “L4”) where suspended in a nutrient medium and distributed to 96 well plates with 20 larvae per well. The wells were spiked DMSO solutions of the compounds with declining concentration.

Assay [2] has as its target Caenorhabditis elegans slo-1a (Caenorhabditis elegans, UniProt Q95V25). The experiment in a line: Agonistic activity at C. elegans Slo-1a, FLIPR membrane potential in CHO K1 cells. As to conditions: EC50 value, CHO K1 cells stably transfected. The source says: In Vitro Assay: Agonistic Activity at C. elegans Slo-1a
A CHO K1 cell line stably transfected with the Caenorhabditis elegans slo-1a (accession no Y51A2D.19a) was established.
The complete measurement takes 150 s.

UniProt Q95V25, sequence (Q95V25 whole entry): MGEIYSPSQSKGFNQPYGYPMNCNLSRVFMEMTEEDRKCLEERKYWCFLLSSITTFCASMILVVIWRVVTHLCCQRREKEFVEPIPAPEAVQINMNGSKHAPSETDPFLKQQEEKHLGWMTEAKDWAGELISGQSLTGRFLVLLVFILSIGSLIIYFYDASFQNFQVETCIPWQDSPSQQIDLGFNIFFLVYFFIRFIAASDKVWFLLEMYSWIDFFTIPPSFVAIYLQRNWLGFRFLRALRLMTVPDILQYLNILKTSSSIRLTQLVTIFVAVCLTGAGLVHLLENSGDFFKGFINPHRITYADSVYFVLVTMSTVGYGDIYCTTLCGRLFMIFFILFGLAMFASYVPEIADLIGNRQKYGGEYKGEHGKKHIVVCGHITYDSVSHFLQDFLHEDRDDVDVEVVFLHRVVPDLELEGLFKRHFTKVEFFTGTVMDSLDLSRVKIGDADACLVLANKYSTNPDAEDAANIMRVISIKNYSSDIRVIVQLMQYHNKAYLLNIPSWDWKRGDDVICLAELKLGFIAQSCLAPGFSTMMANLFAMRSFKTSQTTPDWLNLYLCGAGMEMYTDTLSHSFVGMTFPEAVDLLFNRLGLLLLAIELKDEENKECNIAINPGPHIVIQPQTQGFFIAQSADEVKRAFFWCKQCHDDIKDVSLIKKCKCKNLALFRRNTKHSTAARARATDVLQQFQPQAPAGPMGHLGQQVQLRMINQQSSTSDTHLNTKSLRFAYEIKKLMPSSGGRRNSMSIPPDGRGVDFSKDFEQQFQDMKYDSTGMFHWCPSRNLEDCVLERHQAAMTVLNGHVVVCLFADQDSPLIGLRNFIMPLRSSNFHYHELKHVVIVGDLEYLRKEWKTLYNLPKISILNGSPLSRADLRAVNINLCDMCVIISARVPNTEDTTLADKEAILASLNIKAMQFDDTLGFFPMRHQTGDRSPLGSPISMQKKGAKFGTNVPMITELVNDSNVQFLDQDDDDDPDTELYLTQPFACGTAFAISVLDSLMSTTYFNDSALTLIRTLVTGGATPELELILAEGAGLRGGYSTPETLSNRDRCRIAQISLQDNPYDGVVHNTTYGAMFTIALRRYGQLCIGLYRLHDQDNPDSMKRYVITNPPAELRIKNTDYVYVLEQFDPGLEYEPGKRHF

A word on the EC50: it is the concentration at which the effect is half-maximal. A high value points to lower potency in that assay. As to `C[C@H](NC(=O)c1cnc2c(-c3cccc(Cl)c3Cl)csc2c1N(C)C)c1ccccc1` [Compound 11], the minimal effective concentration in assay [1] is at most 50 µM. In assay [2], this molecule returned an EC50 below 1000 nM.

With `CN1CCN(c2c(C(=O)N[C@H]3CCOc4ccccc43)cnc3c(-c4cccc(Cl)c4Cl)csc23)CC1` [Compound 17], in assay [1], the minimal effective concentration is at most 50 µM. Regarding `CN(C)c1c(C(=O)N[C@H]2CCc3ccccc32)cnc2c(-c3cc(F)cc(F)c3F)csc12` [Compound 25], the minimal effective concentration in assay [1] was at most 50 µM. This molecule returned an EC50 in assay [2] below 1000 nM. In the case of `CN1CCN(c2c(C(=O)N[C@H]3CCc4ccccc43)cnc3c(-c4cc(Cl)cc(Cl)c4)csc23)CC1` [Compound 29], in assay [1], the minimal effective concentration was at most 50 µM. With `Cc1sc2c(N(C)C)c(C(=O)N[C@H]3CCCc4ccccc43)cnc2c1-c1cccc(Cl)c1Cl` [Compound 35], the minimal effective concentration in assay [1] is at most 50 µM. In addition, the concentration giving a half-maximal response (EC50) in assay [2] is below 1000 nM. Regarding `Cc1sc2c(N(C)C)c(C(=O)Nc3cccc4ccccc34)cnc2c1-c1cccc(Cl)c1Cl` [Compound 37], in assay [1], the minimal effective concentration was at most 50 µM. Regarding `Cc1sc2c(N(C)C)c(C(=O)N[C@H]3CCCc4ccccc43)cnc2c1-c1cc(Cl)cc(Cl)c1` [Compound 38], the minimal effective concentration in assay [1] is at most 50 µM. This molecule also had an EC50 in assay [2] below 1000 nM.

`O=C(N[C@H]1CCOc2ccccc21)c1cnc2c(-c3cccc(C(F)(F)F)c3)csc2c1N1CCOCC1` [Compound 42]: in assay [1], the minimal effective concentration was at most 50 µM. The EC50 in assay [2] was below 1000 nM. As to `CN(C)c1c(C(=O)N[C@H]2CCOc3ccccc32)cnc2c(-c3cccc(C(F)(F)F)c3)csc12` [Compound 47], the minimal effective concentration in assay [1] is at most 50 µM. This molecule came in with a half-maximal effective concentration (EC50) in assay [2] below 10000 nM. The corresponding values for `COc1cccc(-c2csc3c(N(C)C)c(C(=O)N[C@H]4CCOc5ccccc54)cnc23)c1` [Compound 48] are at most 50 µM and below 1000 nM. `Cc1sc2c(N3CC(F)(F)C3)c(C(=O)N[C@H]3CCc4ccccc43)cnc2c1-c1cc(Cl)cc(Cl)c1` [Compound 60]: the minimal effective concentration in assay [1] was at most 50 µM. The same molecule registered an EC50 in assay [2] below 1000 nM. `Cc1sc2c(N3CC(F)C3)c(C(=O)N[C@H]3CCCc4ccccc43)cnc2c1-c1cccc(Cl)c1Cl` [Compound 61]: the minimal effective concentration in assay [1] was at most 50 µM. The 50% effective concentration (EC50) in assay [2] was below 1000 nM. The corresponding values for `Cc1sc2c(N3CC(F)C3)c(C(=O)N[C@H]3CCCc4ccccc43)cnc2c1-c1cc(Cl)cc(Cl)c1` [Compound 64] are at most 50 µM and below 1000 nM.

For the molecule `Cc1sc2c(N3CCOCC3)c(C(=O)N[C@H]3CCc4ccccc43)cnc2c1-c1cc(Cl)cc(Cl)c1` [Compound 69], the minimal effective concentration in assay [1] is at most 50 µM. This molecule also displayed an EC50 in assay [2] below 10000 nM. `CN(C)c1c(C(=O)NC2COc3ccccc32)cnc2c(-c3cccc(Cl)c3Cl)csc12` (centres unmarked) [Compound 78]: the minimal effective concentration in assay [1] was at most 50 µM. This molecule showed an EC50 in assay [2] below 10000 nM.

Consider `O=C(NC1COc2ccccc21)c1cnc2c(-c3cc(Cl)cc(Cl)c3)csc2c1N1CCOCC1` (centres unmarked) [Compound 81], for which the minimal effective concentration in assay [1] was at most 50 µM. `O=C(N[C@H]1CCOc2ccccc21)c1cnc2c(-c3cc(F)cc(F)c3)csc2c1N1CCC1` [Compound 83]: the minimal effective concentration in assay [1] was at most 50 µM.

As for `O=C(N[C@H]1CCOc2ccccc21)c1cnc2c(-c3cc(F)cc(F)c3)csc2c1NC1CC1` [Compound 86], in assay [1], the minimal effective concentration is at most 50 µM. Regarding `O=C(N[C@H]1CCOc2ccccc21)c1cnc2c(-c3cccc(F)c3F)csc2c1NC1CC1` [Compound 87], in assay [1], the minimal effective concentration is at most 50 µM.

Regarding `O=C(N[C@H]1CCOc2ccccc21)c1cnc2c(-c3cc(F)cc(F)c3F)csc2c1NC1CC1` [Compound 88], the minimal effective concentration in assay [1] was at most 50 µM. For `O=C(N[C@H]1CCOc2ccccc21)c1cnc2c(-c3cccc(C(F)(F)F)c3)csc2c1NC1CC1` [Compound 89], the minimal effective concentration in assay [1] is at most 50 µM. For the molecule `O=C(N[C@H]1CCOc2ccccc21)c1cnc2c(-c3cc(F)cc(F)c3F)csc2c1NCCO` [Compound 94], the minimal effective concentration in assay [1] was at most 50 µM. Also, the EC50 in assay [2] was below 10000 nM. For the molecule `CN(CCO)c1c(C(=O)N[C@H]2CCOc3ccccc32)cnc2c(-c3cc(F)cc(F)c3F)csc12` [Compound 95], the minimal effective concentration in assay [1] was at most 50 µM. This molecule yielded an EC50 in assay [2] below 1000 nM. For `CN(C)c1c(C(=O)N[C@H]2CCOc3ccccc32)cnc2c(-c3cccc(OC(F)(F)F)c3)csc12` [Compound 97], the minimal effective concentration in assay [1] is at most 50 µM. The EC50 in assay [2] is below 1000 nM. Turning to `CN(C)c1cccc(-c2csc3c(N(C)C)c(C(=O)N[C@H]4CCOc5ccccc54)cnc23)c1` [Compound 98], in assay [1], the minimal effective concentration is at most 50 µM. Also, in assay [2], the EC50 is below 1000 nM.
